{"source": "paper PMC9911399", "about": "“Two distinct binding modes provide the RNA-binding protein RbFox with extraordinary sequence specificity”", "binders": {"B1": {"name": "UGCGUCU (DNA:RNA)", "RNA": "GGGAGACCGGAAUUCAGAUUGUCCUGCGUCUUUAAAUCCCGUCGUAGCCACCA", "DNA 1": "CAATCTGAATTCCGGTCTCCC", "DNA 2": "TGGTGGCTACGACGGGATT"}, "B2": {"name": "GCUCUCG (DNA:RNA)", "RNA": "B1 RNA with U25G, G26C, C27U, G28C, U31G", "DNA 1": "CAATCTGAATTCCGGTCTCCC", "DNA 2": "TGGTGGCTACGACGGGATT"}, "B3": {"name": "GAAUACU (DNA:RNA)", "RNA": "B1 RNA with U25G, G26A, C27A, G28U, U29A", "DNA 1": "CAATCTGAATTCCGGTCTCCC", "DNA 2": "TGGTGGCTACGACGGGATT"}, "B4": {"name": "CGCUUUU (DNA:RNA)", "RNA": "B1 RNA with U25C, G28U, C30U", "DNA 1": "CAATCTGAATTCCGGTCTCCC", "DNA 2": "TGGTGGCTACGACGGGATT"}, "B5": {"name": "CGGUGCG (DNA:RNA)", "RNA": "B1 RNA with U25C, C27G, G28U, U29G, U31G", "DNA 1": "CAATCTGAATTCCGGTCTCCC", "DNA 2": "TGGTGGCTACGACGGGATT"}, "B6": {"name": "GGAUCGC (DNA:RNA)", "RNA": "B1 RNA with U25G, C27A, G28U, U29C, C30G, U31C", "DNA 1": "CAATCTGAATTCCGGTCTCCC", "DNA 2": "TGGTGGCTACGACGGGATT"}, "B7": {"name": "AUACGUA (DNA:RNA)", "RNA": "GGGAGACCGGAAUUCAGAUUGUCCAUACGUAUUAAAUCCCGUCGUAGCCACCA", "DNA 1": "CAATCTGAATTCCGGTCTCCC", "DNA 2": "TGGTGGCTACGACGGGATT"}, "B8": {"name": "UUAACAA (DNA:RNA)", "RNA": "B7 RNA with A25U, C28A, G29C, U30A", "DNA 1": "CAATCTGAATTCCGGTCTCCC", "DNA 2": "TGGTGGCTACGACGGGATT"}, "B9": {"name": "CGCGCUG (DNA:RNA)", "RNA": "B1 RNA with U25C, U29C, C30U, U31G", "DNA 1": "CAATCTGAATTCCGGTCTCCC", "DNA 2": "TGGTGGCTACGACGGGATT"}, "B10": {"name": "UCCAAGU (DNA:RNA)", "RNA": "B1 RNA with G26C, G28A, U29A, C30G", "DNA 1": "CAATCTGAATTCCGGTCTCCC", "DNA 2": "TGGTGGCTACGACGGGATT"}, "B11": {"name": "GGUGAUA (DNA:RNA)", "RNA": "B7 RNA with A25G, U26G, A27U, C28G, G29A", "DNA 1": "CAATCTGAATTCCGGTCTCCC", "DNA 2": "TGGTGGCTACGACGGGATT"}, "B12": {"name": "GGGUCGU (DNA:RNA)", "RNA": "B1 RNA with U25G, C27G, G28U, U29C, C30G", "DNA 1": "CAATCTGAATTCCGGTCTCCC", "DNA 2": "TGGTGGCTACGACGGGATT"}, "B13": {"name": "CGUGGAC (DNA:RNA)", "RNA": "B1 RNA with U25C, C27U, U29G, C30A, U31C", "DNA 1": "CAATCTGAATTCCGGTCTCCC", "DNA 2": "TGGTGGCTACGACGGGATT"}, "B14": {"name": "GAGACGA (DNA:RNA)", "RNA": "B7 RNA with A25G, U26A, A27G, C28A, G29C, U30G", "DNA 1": "CAATCTGAATTCCGGTCTCCC", "DNA 2": "TGGTGGCTACGACGGGATT"}, "B15": {"name": "CGCAGGU (DNA:RNA)", "RNA": "B1 RNA with U25C, G28A, U29G, C30G", "DNA 1": "CAATCTGAATTCCGGTCTCCC", "DNA 2": "TGGTGGCTACGACGGGATT"}, "B16": {"name": "CGGCGAC (DNA:RNA)", "RNA": "B7 RNA with A25C, U26G, A27G, U30A, A31C", "DNA 1": "CAATCTGAATTCCGGTCTCCC", "DNA 2": "TGGTGGCTACGACGGGATT"}, "B17": {"name": "CUUAAAG (DNA:RNA)", "RNA": "B7 RNA with A25C, A27U, C28A, G29A, U30A, A31G", "DNA 1": "CAATCTGAATTCCGGTCTCCC", "DNA 2": "TGGTGGCTACGACGGGATT"}, "B18": {"name": "GUAAUUG (DNA:RNA)", "RNA": "B7 RNA with A25G, C28A, G29U, A31G", "DNA 1": "CAATCTGAATTCCGGTCTCCC", "DNA 2": "TGGTGGCTACGACGGGATT"}, "B19": {"name": "AGAGAUG (DNA:RNA)", "RNA": "B7 RNA with U26G, C28G, G29A, A31G", "DNA 1": "CAATCTGAATTCCGGTCTCCC", "DNA 2": "TGGTGGCTACGACGGGATT"}, "B20": {"name": "AUAGAGG (DNA:RNA)", "RNA": "B7 RNA with C28G, G29A, U30G, A31G", "DNA 1": "CAATCTGAATTCCGGTCTCCC", "DNA 2": "TGGTGGCTACGACGGGATT"}, "B21": {"name": "CCUUCCA (DNA:RNA)", "RNA": "B7 RNA with A25C, U26C, A27U, C28U, G29C, U30C", "DNA 1": "CAATCTGAATTCCGGTCTCCC", "DNA 2": "TGGTGGCTACGACGGGATT"}, "B22": {"name": "ACACCGA (DNA:RNA)", "RNA": "B7 RNA with U26C, G29C, U30G", "DNA 1": "CAATCTGAATTCCGGTCTCCC", "DNA 2": "TGGTGGCTACGACGGGATT"}, "B23": {"name": "UGAUCCG (DNA:RNA)", "RNA": "B1 RNA with C27A, G28U, U29C, U31G", "DNA 1": "CAATCTGAATTCCGGTCTCCC", "DNA 2": "TGGTGGCTACGACGGGATT"}, "B24": {"name": "GUAAUCC (DNA:RNA)", "RNA": "B7 RNA with A25G, C28A, G29U, U30C, A31C", "DNA 1": "CAATCTGAATTCCGGTCTCCC", "DNA 2": "TGGTGGCTACGACGGGATT"}, "B25": {"name": "UAUGACG (DNA:RNA)", "RNA": "B1 RNA with G26A, C27U, U29A, U31G", "DNA 1": "CAATCTGAATTCCGGTCTCCC", "DNA 2": "TGGTGGCTACGACGGGATT"}, "B26": {"name": "UUAAGAC (DNA:RNA)", "RNA": "B7 RNA with A25U, C28A, U30A, A31C", "DNA 1": "CAATCTGAATTCCGGTCTCCC", "DNA 2": "TGGTGGCTACGACGGGATT"}, "B27": {"name": "UUAGGAU (DNA:RNA)", "RNA": "B7 RNA with A25U, C28G, U30A, A31U", "DNA 1": "CAATCTGAATTCCGGTCTCCC", "DNA 2": "TGGTGGCTACGACGGGATT"}, "B28": {"name": "AUGGAUG (DNA:RNA)", "RNA": "B7 RNA with A27G, C28G, G29A, A31G", "DNA 1": "CAATCTGAATTCCGGTCTCCC", "DNA 2": "TGGTGGCTACGACGGGATT"}, "B29": {"name": "CGCGUGG (DNA:RNA)", "RNA": "B1 RNA with U25C, C30G, U31G", "DNA 1": "CAATCTGAATTCCGGTCTCCC", "DNA 2": "TGGTGGCTACGACGGGATT"}, "B30": {"name": "GCCGUUU (DNA:RNA)", "RNA": "B1 RNA with U25G, G26C, C30U", "DNA 1": "CAATCTGAATTCCGGTCTCCC", "DNA 2": "TGGTGGCTACGACGGGATT"}, "B31": {"name": "GGGGAUU (DNA:RNA)", "RNA": "B1 RNA with U25G, C27G, U29A, C30U", "DNA 1": "CAATCTGAATTCCGGTCTCCC", "DNA 2": "TGGTGGCTACGACGGGATT"}}, "note": "Where a chain is given by its changes, count along the chain named. Some of the results follow."}
{"molecular_target": "T1, RBFOX1 RRM (Homo sapiens, UniProt Q9NWB1 109-208)", "T1 sequence": "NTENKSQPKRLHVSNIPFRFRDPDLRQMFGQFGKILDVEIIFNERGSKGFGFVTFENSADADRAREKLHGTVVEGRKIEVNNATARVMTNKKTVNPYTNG", "assay": "EMSA; HiTS-Eq, 1 nM pool, 10 min; buffer printed only for the single-RNA assays: 10 mM Tris pH 7.5, 150 mM NaCl, 3.4 mM EDTA, 0.001% NP-40, 30 C", "details": "tags: His6 N-terminal (pET28a); label: 5' 32P", "summary_of_the_method": "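Purified RbFox RRM (wild type or mutant) was equilibrated for 10 min in 50 µL with 1 nM of a 5′-radiolabelled pool of RNA with 7 randomized nucleotides, its flanks annealed to DNA oligonucleotides, across increasing protein concentrations. Free RNA was separated by 8% native PAGE, excised, reverse-transcribed, PCR-barcoded and sequenced on an Illumina HiSeq 2500. Relative association constants came from read-count changes of each variant against the control reaction, normalised to the cognate motif.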"}
{"binder": "B1", "binding signal": "0.0188 KA relative to UGCAUGU"}
{"binder": "B2", "binding signal": "0.0129 KA relative to UGCAUGU"}
{"binder": "B3", "binding signal": "0.00268 KA relative to UGCAUGU"}
{"binder": "B4", "binding signal": "0.0138 KA relative to UGCAUGU"}
{"binder": "B5", "binding signal": "0.0207 KA relative to UGCAUGU"}
{"binder": "B6", "binding signal": "0.0233 KA relative to UGCAUGU"}
{"binder": "B7", "binding signal": "0.00314 KA relative to UGCAUGU"}
{"binder": "B8", "binding signal": "0.00291 KA relative to UGCAUGU"}
{"binder": "B9", "binding signal": "0.0173 KA relative to UGCAUGU"}
{"binder": "B10", "binding signal": "0.0041 KA relative to UGCAUGU"}
{"binder": "B11", "binding signal": "0.0103 KA relative to UGCAUGU"}
{"binder": "B12", "binding signal": "0.0214 KA relative to UGCAUGU"}
{"binder": "B13", "binding signal": "0.0096 KA relative to UGCAUGU"}
{"binder": "B14", "binding signal": "0.00972 KA relative to UGCAUGU"}
{"binder": "B15", "binding signal": "0.0129 KA relative to UGCAUGU"}
{"binder": "B16", "binding signal": "0.014 KA relative to UGCAUGU"}
{"binder": "B17", "binding signal": "0.00475 KA relative to UGCAUGU"}
{"binder": "B18", "binding signal": "0.0106 KA relative to UGCAUGU"}
{"binder": "B19", "binding signal": "0.011 KA relative to UGCAUGU"}
{"binder": "B20", "binding signal": "0.00613 KA relative to UGCAUGU"}
{"binder": "B21", "binding signal": "0.00375 KA relative to UGCAUGU"}
{"binder": "B22", "binding signal": "0.000712 KA relative to UGCAUGU"}
{"binder": "B23", "binding signal": "0.0149 KA relative to UGCAUGU"}
{"binder": "B24", "binding signal": "0.0106 KA relative to UGCAUGU"}
{"binder": "B25", "binding signal": "0.0056 KA relative to UGCAUGU"}
{"binder": "B26", "binding signal": "0.00837 KA relative to UGCAUGU"}
{"binder": "B27", "binding signal": "0.00616 KA relative to UGCAUGU"}
{"binder": "B28", "binding signal": "0.0216 KA relative to UGCAUGU"}
{"binder": "B29", "binding signal": "0.00951 KA relative to UGCAUGU"}
{"binder": "B30", "binding signal": "0.0136 KA relative to UGCAUGU"}
{"binder": "B31", "binding signal": "0.038 KA relative to UGCAUGU"}
